{"source": "paper PMC12136788", "binders": {"B1": {"name": "chr5:119149357:119149458:+|CDS|ENSG00000172869|msi1|FALSE|unique (ssRNA)", "RNA": "GGGAGUUCUACAGUCCGACGAUCCUGGGAGAGUACCAAAGUUGUGCCCCUUUCUAAAUUUGUACUAUUACGAAGUGUGGACCUAGUUUCUUCUGUAGAUGGCUCCCCACCUUUUCCUGUUUCUUUAUCGUGGGUCCGGGAUGGCAACAGAGGAUUGAGCAUCA"}, "B2": {"name": "chr3:194644572:194644746:-|CDS|ENSG00000041802|control|control|control (ssRNA)", "RNA": "GGGAGUUCUACAGUCCGACGAUCGCAUCAACACCAGCGACUCCUAGAGAACAAAAUGAACAGUGAUGAAAUAAAAAUGCAGCUAGGCAGAAAUAAAAAAGCAAAGCAGAUUGAAAAUAUCGUUGACAAAACUUUUUUCCAUCACAACAGAGGAUUGAGCAUCA"}, "B3": {"name": "chr12:104012598:104012803:-|three_prime_utr|ENSG00000120820|control|control|control (ssRNA)", "RNA": "GGGAGUUCUACAGUCCGACGAUCCUGAGAUGCUGGAAGCUAAGACGUUAACAAACGGACUCUGGAGGACACAAUUCAGUCCAUAGCAGUAUCUACACCUCAAUAAACUGUUCUAAAAGAGAGAGAGAGAGAAGGAAGUCACAUCAACAGAGGAUUGAGCAUCA"}, "B4": {"name": "chr6:144852070:144852171:+|3pUTR|ENSG00000152818|unk|FALSE|unique (ssRNA)", "RNA": "GGGAGUUCUACAGUCCGACGAUCAAGUCCUUAAUAGUUCUUGAAACUCCUAGUUGUUUUCUUGUUGAAAGCAGACACACAUUUAGUGCACGGCUUAUUUUACCUUUCGGGUGAAAGAUCAGAUGUUUUUAUACCCUUCACUUGCAACAGAGGAUUGAGCAUCA"}, "B5": {"name": "chr8:58583617:58583718:-|3pUTR|ENSG00000035681|unk|FALSE|unique (ssRNA)", "RNA": "GGGAGUUCUACAGUCCGACGAUCGUUUUGUCUUCCUAAUCUAUCACAAUUGCCACCCAUCGGGUUUUGGGUGUGUGUUUUCAUAGCGUGGUUACUUUCUAUAAUGCUGUACCCAGAUUCUAAGAACCUGGAGAAGGAUUAGCACAACAGAGGAUUGAGCAUCA"}, "B6": {"name": "chr21:43982464:43982545:+|3pUTR|ENSG00000160216|msi1_unk|FALSE|overlapping (ssRNA)", "RNA": "GGGAGUUCUACAGUCCGACGAUCCCCUGACGGUGGUAUCCAGUUAACUCAAAACCAACACACAGAGUGCAGGAAAAGACAAUUAGAAACUAUUUUUCUUAUUAACUGGUGACUAAUAUUAACAAAACUUGAGCCAAGAGUAAACAACAGAGGAUUGAGCAUCA"}, "B7": {"name": "chr15:32969305:32969406:-|CDS|ENSG00000248905|unk|total|mutant (ssRNA)", "RNA": "GGGAGUUCUACAGUCCGACGAUCCGAGCAUGCAAUGAUAACAGCGAGACCCGAAGAAACCAUUGAAAAUCUGAAACACGAGCCCGAACACAGAUGGCGAGGGGGUUGUGAAGAGAGGAAAGAUGUGUGCAUUUCCACCGAUGACAACAGAGGAUUGAGCAUCA"}, "B8": {"name": "chr7:83961326:83961382:-|CDS_3pUTR|ENSG00000075213|msi1_unk|total|mutant (ssRNA)", "RNA": "GGGAGUUCUACAGUCCGACGAUCAAACAGGAGGACCCACGAAUUUGAGAGGGCACCCAGGAGUGUCUGAGCUGCAUUACCUCCCGAAACCUCAAACAAGCCGAAACUUGCCCCGACAAUAACUGGAAAAACAAAUGCAAUAUACAACAGAGGAUUGAGCAUCA"}, "B9": {"name": "chr15:41900134:41900198:-|3pUTR|ENSG00000103966|msi1_unk|total|mutant (ssRNA)", "RNA": "GGGAGUUCUACAGUCCGACGAUCAGGGCACCUGGAGGCAGCAAAGAUUAUCUUAUUUAUUUUAUUUUGUUUUCUGCUAUAUUCCGAGUGGCAAAAAAACCGAGCAGAGGGUUUCUGCUGUCUCCAGACUGUCUACCAAAGAGACAACAGAGGAUUGAGCAUCA"}, "B10": {"name": "chr8:123014585:123014686:-|3pUTR|ENSG00000136986|msi1|total|mutant (ssRNA)", "RNA": "GGGAGUUCUACAGUCCGACGAUCGCAGCUAACAUGGGUCCGGUUUAAACCAUGGGGGAUGCAACCCCUUUGCGUUUCAUAUGCCGGCCUACUGGCUUUGUGCCGCUGGAGCCGUUGGGUUGCUUUGUGUCCGGAGGAUCCAGACAACAGAGGAUUGAGCAUCA"}, "B11": {"name": "chr5:171410733:171410822:+|3pUTR|ENSG00000181163|msi1_unk|total|mutant (ssRNA)", "RNA": "GGGAGUUCUACAGUCCGACGAUCGUUUUUAAAGAUGGAACUCCACCCUUUGCUUGGUUUUAAGUAUGUAUGGAAUGUUAUGACCGGACACCGCCGCCGCGGUGGUCAGACAUGGAAAUGGUGGGGAGACAAAAAUAUACAUGUCAACAGAGGAUUGAGCAUCA"}, "B12": {"name": "chr7:44573567:44573675:-|CDS|ENSG00000136271|unk|FALSE|unique (ssRNA)", "RNA": "GGGAGUUCUACAGUCCGACGAUCCGCACGGGCUCCGGGAAGACGGCCGCUUAUGCUAUUCCGAUGCUGCAGCUGUUGCUCCAUAGGAAGGCGGUGGGUAACGAGAGAGCUGAGGGGAGGAAGGAGGCAAGCUCCAAAAGCCUGCAACAGAGGAUUGAGCAUCA"}, "B13": {"name": "chr1:155884367:155884468:+|3pUTR|ENSG00000132718|msi1|FALSE|unique (ssRNA)", "RNA": "GGGAGUUCUACAGUCCGACGAUCUGGGUCUACUGAGCAGUGGGUGCUGAGGUGACAGGGGAGGAACCAGUUGUUCUGUAGCCUAGGAACUGCCUCAGUGUCUUUGCCAGAAAAAGGCAAAGAGGCGGACAGUGCAGGGCUCCUCAACAGAGGAUUGAGCAUCA"}, "B14": {"name": "chr16:11872726:11872856:-|3pUTR|ENSG00000103342|msi1_unk|total|mutant (ssRNA)", "RNA": "GGGAGUUCUACAGUCCGACGAUCACAUAAUUGCCUACAAUAAUGAAAACCUACAGGAAUUUUUUUAUUUUUCAUUUUCCCCUCCGGCAUAUUCCGUAUUUUUCCCCCAGGCAGAUCAUUCUGAGUGUGCGAGUGUGUGUGCACCAACAGAGGAUUGAGCAUCA"}, "B15": {"name": "chr13:98915392:98915499:-|CDS|ENSG00000088387|unk|FALSE|unique (ssRNA)", "RNA": "GGGAGUUCUACAGUCCGACGAUCUCAUUUCAGAACAACAAAGUCAGGCGUUUUGCUUUUGAGCUCAAGAUGCAGGACAAAAGUAGUUAUCUCUUGGCAGCAGACAGUGAAGUGGAAAUGGAAGAAUGGAUCACAAUUCUAAAUCAACAGAGGAUUGAGCAUCA"}, "B16": {"name": "ENSG00000198589:be:win_3251|CDS|ENSG00000198589|bound_else_gene|NA|bound_elsewhere_windowed (ssRNA)", "RNA": "GGGAGUUCUACAGUCCGACGAUCCUCCUUCAGAAGAGGAUGCCUCAGAGAUGCCAGAAUUCUUGGAUAAAUCUAUAGUAGAGGAAGAGGAAGAUGAUGAUUAUGUGGAACUGAAAGUAGAAGGCAGUCCUACUGAGGAAGCUACAACAGAGGAUUGAGCAUCA"}, "B17": {"name": "chr7:6691352:6691453:-|CDS|ENSG00000164631|unk|FALSE|bound_elsewhere (ssRNA)", "RNA": "GGGAGUUCUACAGUCCGACGAUCUACGAAUGUAAUGAAUGUGGAAAGUUAUUCUCCCAGUUGUCAUACCUCACUAUCCAUCAUAGAACUCAUUCAGGAGUAAAACCCUAUGAAUGUAGUGAAUGUGGGAAAACCUUCUACCAGCAACAGAGGAUUGAGCAUCA"}, "B18": {"name": "chr12:53253816:53253925:+|CDS|ENSG00000182544|unk|total|mutant (ssRNA)", "RNA": "GGGAGUUCUACAGUCCGACGAUCUCUCUUCAUGUUGACUUUCUCUACCAGCCCAGGCCAGGAGAGUCCGGUGGAGUCCUUCACCGCCUUUCUACUUAUUGAGUUGGCUUGUGGAUUAUACUUUCCCAGCAUGAGCUUCCUACGCAACAGAGGAUUGAGCAUCA"}, "B19": {"name": "chr12:24812577:24812678:-|3pUTR|ENSG00000060982|msi1|FALSE|unique (ssRNA)", "RNA": "GGGAGUUCUACAGUCCGACGAUCAUCCAAAGGAGCUUUUUCCUUAUUCUGUCAAGCAUUGAGAUCUUCUUCAGCUUUCAAUGUAGUUGCUAAAUACAAAUAAUGCUACUAGGUAGUGACUAAAUAUAGCAAACACUUCAUCAGCAACAGAGGAUUGAGCAUCA"}, "B20": {"name": "chr9:37862824:37862925:+|3pUTR|ENSG00000122741|unk|FALSE|unique (ssRNA)", "RNA": "GGGAGUUCUACAGUCCGACGAUCUAUGCACUAGCCUUGCCCUCUUAGGUUGCAUUCUCUUUAGGCCACUGGUUCUCAAACAUUAGGGUGCACUGUAACCAUUACAGAGCUUGUGAAAAGUGCAGAAACCUGAGCCUCACCUUACAACAGAGGAUUGAGCAUCA"}, "B21": {"name": "chr3:151442983:151443884:-|CDS|ENSG00000152580|control|control|control (ssRNA)", "RNA": "GGGAGUUCUACAGUCCGACGAUCUGGUUCGGAGCGAAGAGUAGUAAUGCUUACAAUGGAAGAGCGAGUGACCAGCCCCAGGAUAGAAGCUGCAUCCCAGAAAAGGACUGAAGUGAAUUUUGGGGACAAAUUACUACUGAACUGCAACAGAGGAUUGAGCAUCA"}, "B22": {"name": "chr9:128633378:128633479:+|3pUTR|ENSG00000197694|msi1|FALSE|bound_elsewhere (ssRNA)", "RNA": "GGGAGUUCUACAGUCCGACGAUCCUUGCUGCAUGUCCGCUCCUCUGUGUGCUCUCACUUUCCACUGUAACCUUAAGCCUGCUUAGCUUGGAAUAAGACUUAGGAGAAAAUGGUGCUUCACUAACCCGCUUCCGGUCCAGUCACCAACAGAGGAUUGAGCAUCA"}}, "note": "The other results are listed elsewhere or left out.", "data": [{"target": "T1, UNK ZnF1-6 (called full-length) (human, UniProt Q9C0B0 30-357)", "T1 sequence": "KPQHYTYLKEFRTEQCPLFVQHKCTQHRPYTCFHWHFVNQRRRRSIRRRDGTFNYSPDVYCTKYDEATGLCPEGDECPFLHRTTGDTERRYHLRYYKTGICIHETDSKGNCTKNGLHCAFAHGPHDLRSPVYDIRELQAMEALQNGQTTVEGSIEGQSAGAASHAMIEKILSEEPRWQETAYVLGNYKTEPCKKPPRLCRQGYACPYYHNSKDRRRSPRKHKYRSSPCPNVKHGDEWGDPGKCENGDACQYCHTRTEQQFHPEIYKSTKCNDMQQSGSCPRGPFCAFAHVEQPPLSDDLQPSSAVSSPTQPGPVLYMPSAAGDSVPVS", "test": "nsRBNS (natural sequence RNA bind-n-seq); RBNS binding buffer (assumed for nsRBNS): 25 mM Tris pH 7.5, 150 mM KCl, 3 mM MgCl2, 0.01% Triton X-100, 500 ug/ml BSA, 20 U/ml SUPERase-In, 4 C; UNK is unkempt and MSI1 is Musashi-1; names of the RNAs are library labels; protein concentration not given here; high values mean tight binding", "units": {"binding signal": "enrichment R"}, "values": [{"binder": "B1", "binding signal": 1.06}, {"binder": "B2", "binding signal": 0.393}, {"binder": "B3", "binding signal": 0.823}, {"binder": "B4", "binding signal": 0.969}, {"binder": "B5", "binding signal": 0.381}, {"binder": "B6", "binding signal": 0.851}, {"binder": "B7", "binding signal": 0.672}, {"binder": "B8", "binding signal": 0.585}, {"binder": "B9", "binding signal": 1.3}, {"binder": "B10", "binding signal": 0.478}, {"binder": "B11", "binding signal": 0.885}, {"binder": "B12", "binding signal": 0.771}, {"binder": "B13", "binding signal": 0.745}, {"binder": "B14", "binding signal": 1.06}, {"binder": "B15", "binding signal": 0.548}, {"binder": "B16", "binding signal": 0.845}, {"binder": "B17", "binding signal": 0.206}, {"binder": "B18", "binding signal": 0.501}, {"binder": "B19", "binding signal": 0.559}, {"binder": "B20", "binding signal": 0.503}, {"binder": "B21", "binding signal": 0.733}, {"binder": "B22", "binding signal": 0.581}]}]}
